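Exposure lasted 48 hours, with cells grown in 96-well plates and compounds tested at five concentrations. At the GI50, growth is halved.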 Calls of active or inactive are those of the source. No stated cut-off is given here; in the data, active = GI50 up to about 1.1 µM and inactive = higher.
Test system: NCI-H322M
Assay: inhibition of tumour cell growth, NCI panel, 48 h

Row | SMILES | GI50
1 | COC(=O)/C(C#N)=C/c1cc(C(C)(C)C)c(O)c(C(C)(C)C)c1 | inactive: 2.99 µM
2 | CCCOc1ccc(/C(Cl)=C(\C=O)c2ccc(OC)c(OC)c2)cc1OCCC | inactive: 5.66 µM
3 | COC(=O)CCc1ccc2c(c1)CC1(C2)Cc2ccc(CCC(=O)OC)cc2C1 | inactive: > 100 µM
4 | COc1cc([C@@H]2OC(=O)C3C2C(=O)O[C@H]3c2cc(OC)c(OC)c(OC)c2)cc(OC)c1OC (some centres not stated) | inactive: > 100 µM
5 | CC(C)(C)[Si](C)(C)OCC1OC(n2ccc(=O)[nH]c2=O)C(O[Si](C)(C)C(C)(C)C)/C1=N/O (configuration not stated) | inactive: 5.14 µM
6 | CN1CCN(/C(N)=C(\C#N)C(=O)Nc2ccc(Cl)cc2)CC1 | inactive: > 100 µM
7 | O=C1/C(=C\c2cccc(Oc3ccccc3)c2)SC(c2ccccc2)N1c1ccccc1 (configuration not stated) | inactive: > 100 µM
8 | Nc1nc2c(c(=O)[nH]1)N=C(COP(=O)(O)OP(=O)(O)O)CN2 | inactive: > 100 µM
9 | Cc1cccc2c1CC1(C2)Cc2c(C)cccc2C1=O (configuration not stated) | inactive: 24.9 µM
10 | CC(O)/C=C/C1OC(=O)CC1Nc1ccc(C=O)cc1 (configuration not stated) | inactive: > 100 µM
11 | CCOC(=O)C1([Se]c2ccccc2)CCCC1=O (configuration not stated) | inactive: > 100 µM
12 | C=C(Nc1ccc([N+](=O)[O-])cc1[N+](=O)[O-])c1c/c(=N\NC(N)=S)c2ccccc2o1 | inactive: 94.8 µM
13 | COC1CC(n2cnc3c(N)ncnc32)OC1CO (configuration not stated) | inactive: > 100 µM
14 | Cc1ccc(S(=O)(=O)NCCSS(=O)(=O)c2ccc(C)cc2)cc1 | inactive: 80.4 µM
15 | O=[N+]([O-])/C(C(Cl)=C(Cl)Cl)=C(/Br)SCc1ccccc1 | inactive: 17.7 µM
16 | O=C(c1ccncc1)n1nc(-c2ccccc2)c(/N=N/c2ccccc2[N+](=O)[O-])c1-c1ccccc1 | inactive: 25.7 µM
17 | N#Cc1c(N2CCCC2)ncn(Cc2ccccc2)c1=S | inactive: > 85.7 µM
18 | NC(=O)/N=C1/CCC2C3CCCC2C13 | inactive: > 100 µM
19 | Cn1c(=O)cc(N2CCCC2)[nH]c1=O | inactive: > 100 µM
20 | O=C(Nc1nc2ccc([N+](=O)[O-])cc2s1)C(=O)C(C(=O)c1ccncc1)C1OC(=O)c2ccccc21 (configuration not stated) | inactive: 90.6 µM
21 | COc1ccc(/C=C2\CCCC(C(NO)c3ccc(OC)cc3)C2=NO)cc1 (configuration not stated) | inactive: 69.3 µM
22 | C/C=C/C(=O)N1C(=O)OC[C@@H]1c1ccccc1 | inactive: 17.9 µM
23 | CC(C)(C)c1ccc2c(c1)S(=O)(=O)Nc1ccccc1NS(=O)(=O)c1cc(C(C)(C)C)ccc1OCCOCCOCCO2 | inactive: > 100 µM
24 | COc1cc(/C=C2\C(=O)N(C(=O)c3ccc(NC(C)=O)cc3)N=C2C)ccc1O | inactive: > 100 µM
25 | Cc1cc(=O)n2nc(CN3CCCCC3)sc2n1 | inactive: > 100 µM

Row | SMILES | GI50
26 | COC(=O)C(=O)C(C(=O)C(=O)Nc1cc(C)ccc1C)c1nc2ccc(C(=O)c3ccccc3)cc2nc1O (configuration not stated) | inactive: > 100 µM
27 | O=C(NCCCCNCCCNC(=O)OCc1ccccc1)OCc1ccccc1 | inactive: 60.5 µM
28 | O=C(Nc1cccc(Cl)c1)c1cc2cc(/N=N/c3ccc(Br)cc3)ccc2oc1=O | inactive: > 100 µM
29 | Cc1cc[n+]2c(c1)-c1cc(C)cc[n+]1CC2 | inactive: > 100 µM
30 | COc1ccc(C2CC(c3cc(C)ccc3O)=NC(N)=N2)cc1 (configuration not stated) | inactive: > 100 µM
31 | COc1ccc(-c2c(C3=NCCCN3)nnn2-c2ccc([N+](=O)[O-])cc2)cc1 | inactive: > 100 µM
32 | CC1C(=O)O[B-]2(c3ccccc3)Oc3ccccc3C=[N+]12 (configuration not stated) | inactive: > 100 µM
33 | C(=C\C(SCc1ccccc1)SCc1ccccc1)/c1ccccc1 | inactive: > 10 µM
34 | C=C1c2nc3ccccc3n2C=C(c2ccc(OC)cc2)N1c1ccc(OCCN2CCOCC2)cc1 | inactive: > 90.4 µM
35 | C#CCOC(=O)C(N)CCSC (configuration not stated) | inactive: > 100 µM
36 | CCCOP(=O)(OCCC)OC(C(F)(F)F)C(F)(F)F | inactive: > 100 µM
37 | CC12CCC(=O)C[C@H]1CCC(OC=O)C2Br (some centres not stated) | inactive: > 100 µM
38 | COC(=O)C1(C)OC(C)=NC1(C(=O)OC)C(=O)OC (configuration not stated) | inactive: > 100 µM
39 | Cc1nc(C(N)=S)sc1C(/C=C/c1ccc(Cl)c(Cl)c1)=N/NC(C)(C)C | inactive: > 100 µM
40 | NC(=O)C(=O)CC(=O)c1ccccc1NC1=CC(=O)C(=O)c2ccccc21 | inactive: > 100 µM
41 | Nc1cccc2nsnc12 | inactive: > 100 µM
42 | COc1cc(OC)c([C@@H]2OC(=O)C3C2C(=O)O[C@H]3c2cc(OC)c(OC)cc2OC)cc1OC (some centres not stated) | inactive: > 100 µM
43 | O=C(CN1CCOCC1)CC(O)(C(F)(F)F)C(F)(F)F | inactive: > 100 µM
44 | CCOCNC(=O)N(COCC)COCC | inactive: > 100 µM
45 | CCOC(=O)/C(=C\NCC(OCC)OCC)c1nc2ccccc2[nH]1 | inactive: 40.4 µM
46 | COc1cc(Nc2ccc3c(c2)CCC3)nc(OC)n1 | inactive: 95.9 µM
47 | CSc1ccc(C(=O)C(=O)c2ccc(SC)s2)s1 | inactive: > 10 µM
48 | Sc1nn2c(COc3ccc(Cl)cc3)nnc2s1 | inactive: > 100 µM
49 | C=C1CC2OC(=O)C(=C)C2C(O)C2C(=C)CCC12 (configuration not stated) | inactive: 11.9 µM
50 | CC(=O)N(O)[C@@H]1CC[C@H](n2cnc3c(N)ncnc32)C1 | inactive: > 100 µM

Row | SMILES | GI50
51 | O=c1c2ccccc2nc2n1NC(c1c(Cl)cccc1Cl)N2c1cccc(Cl)c1 (configuration not stated) | inactive: 4.39 µM
52 | NCCCC(N)C(=O)O (configuration not stated) | inactive: > 100 µM
53 | CCCN(CCCCC(NC(C)=O)C(=O)NCc1ccccc1)C(=O)N(C)N=O (configuration not stated) | inactive: > 100 µM
54 | COc1ccc(C23OCC(Cc4cc(OC)c(OC)cc42)C3COC(C)=O)cc1OC (configuration not stated) | inactive: > 100 µM
55 | Cn1c2ccccc2n2c3ccccc3c(=O)c(C#N)c12 | inactive: 8.81 µM
56 | O=C(Cc1nc2ccccc2s1)Nc1cccc(C(F)(F)F)c1 | inactive: 13.9 µM
57 | O=c1c2cc(Br)ccc2[nH]c(=S)n1-c1ccccc1 | inactive: > 100 µM
58 | O=C(NN1C(=O)CSC1c1ccco1)c1ccncc1 (configuration not stated) | inactive: > 100 µM
59 | COc1cc(/C=C2/SC(c3ccccc3)N(Cc3ccccc3)C2=O)cc(OC)c1OC (configuration not stated) | inactive: 72.6 µM
60 | CCNc1c(C(=O)N(CC)CC)c(=O)[nH]c2ncccc12 | inactive: > 100 µM
61 | CC12CCC(C(=O)N3CC=CCC3)(OC1=O)C2(C)C (configuration not stated) | inactive: > 100 µM
62 | CC(C)(C)c1nc2c(o1)/C(=N\c1ccccc1)c1ccccc1C2=O | inactive: 17.1 µM
63 | NS(=O)(=O)c1ccc(/N=N/c2nc3[nH]cnc(=S)c3[nH]2)cc1 | inactive: 4.92 µM
64 | CSc1nc2c(c(O)c(C)c(=O)n2C2OC(COC(C)=O)C(OC(C)=O)C(OC(C)=O)C2OC(C)=O)c(=O)n1C (configuration not stated) | inactive: > 100 µM
65 | C=C1C(=O)O[C@@H]2C[C@@]3(C)CCCC(=C)[C@@H]3C[C@H]12.C=C1C(=O)O[C@@H]2C[C@@]3(C)CCC[C@H](C)C3=C[C@H]12 | inactive: 8 µM
66 | O=C1c2cccc3cc([N+](=O)[O-])cc(c23)C(=O)N1NC1=NCCN1 | inactive: > 100 µM
67 | CC1=NN2C(c3ccc(C)cc3)=CSC2=NC(C)(C)C1 | inactive: > 100 µM
68 | CC1=NN(c2cccc(Cl)c2)C(=N/c2nc3ccccc3s2)/C1=C\C=C\c1ccccc1 | inactive: 37.7 µM
69 | COc1ccc(/C=N/CCC/N=C/c2ccc(OC)cc2O)c(O)c1 | inactive: 32 µM
70 | CN(C)C(=O)C(F)(F)C(c1ccc(C(F)(F)F)cc1)C1C(=O)N(C)C(=O)N(C)C1=O (configuration not stated) | inactive: > 100 µM
71 | CC(=O)O[C@H]1CCC2[C@@H]3CCC4=C(O)C(=O)C(C#N)C[C@]4(C)C3CC[C@@]21C (some centres not stated) | inactive: 18.1 µM
72 | CN(CCNC(=O)c1c[nH]c2c1ccc1ccccc12)CCNC(=O)c1c[nH]c2c1ccc1ccccc12 | inactive: 1.97 µM
73 | O=C1CCCC1C(=O)Nc1ccc2ccccc2c1 (configuration not stated) | inactive: > 100 µM
74 | COc1cc(-c2ccc(NC(=O)SCCC(=O)O)cc2OC)ccc1NC(=O)SCCC(=O)O | inactive: > 100 µM
75 | CCCCCc1c(Cl)nc(Cl)nc1Cl | inactive: 16.1 µM

Row | SMILES | GI50
76 | Cc1c(/C=N/NC(=S)Nc2ccccc2Cl)c(=O)n(-c2ccccc2)n1C | inactive: 32.6 µM
77 | Fc1cc(-c2cc(-c3ccccc3)no2)c(Cl)cc1Cl | inactive: > 35 µM
78 | C=C1CC(CNc2cc(Cl)nc(N)n2)C1 | inactive: > 100 µM
79 | C[C@@H](NC(=O)Nc1cccc(C(=O)Nc2cc(C(C)(C)C)ccc2C(=O)O)n1)c1ccccc1 | inactive: 54.3 µM
80 | CNS(=O)(=O)NN(C)S(=O)(=O)c1ccccc1 | inactive: > 100 µM
81 | Cc1ccc(C(CC(=O)C(C)(C)CN2CCCCC2)SCCS(=O)(=O)O)cc1 (configuration not stated) | inactive: 21.7 µM
82 | COc1ccc2c(c1)N=C1CSC(c3c(Cl)cccc3[N+](=O)[O-])N1C2 (configuration not stated) | inactive: 60.7 µM
83 | O=C1NC(N2CCOCC2)=N/C1=C\c1ccco1 | inactive: > 100 µM
84 | NCC(=O)NC1(c2cc3ccccc3s2)CCCCC1 | inactive: 37.9 µM
85 | COC(=O)c1ccc(C)cc1CC1Cc2cc(C)ccc2C1=O (configuration not stated) | inactive: > 100 µM
86 | CC1C/C(=C\c2ccc(O)c(O)c2)C(=O)/C(=C/c2ccc(O)c(O)c2)C1 (configuration not stated) | inactive: 13 µM
87 | N=C(N)NCCCC(NC(=O)c1c2ccccc2nc2ccccc12)C(=O)O (configuration not stated) | inactive: > 100 µM
88 | CSc1c(C)[n+]([O-])c2cc(Cl)c(Cl)cc2[n+]1[O-] | inactive: 25.5 µM
89 | CCCCCCCC/C=C/CCCCCCCC(=O)N(O)C1CC(n2cc(C)c(=O)[nH]c2=O)OC1CO (configuration not stated) | inactive: 16.8 µM
90 | O=C1Nc2ccccc2Nc2nc3cccccc-3c21 | inactive: > 100 µM
91 | CC(=O)c1cccc(NC(=O)C(=O)Nn2c(N)nnc2N)c1 | inactive: > 100 µM
92 | Clc1ccc(-c2nnc3sc4nc5ccccc5c-4nn23)c(Cl)c1 | inactive: 97.5 µM
93 | C#CCOc1c(C(=O)OCC)c(=O)n(C)c2ccccc12 | inactive: > 100 µM
94 | C1CSCC2(COC2)CSCCSCC2(COC2)CS1 | inactive: > 100 µM
95 | C[C@H](C(=O)C12CC3CC(CC(C3)C1)C2)[C@H](O)c1ccccc1 | inactive: 22.9 µM
96 | NC(=O)C1=NNc2ccccc2C(=O)N1c1ccccc1 | inactive: > 100 µM
97 | CNC(=O)N1N[C@H](c2ccccc2)[C@@H]1c1ccccc1.OB(O)O | inactive: 30.3 µM

Source: ChEMBL document CHEMBL1201862, “PubChem BioAssay data set” (2004)
